Drawing on PMC3411106, “Structural analysis of the human SYCE2–TEX12 complex provides molecular insights into synaptonemal complex assembly” (Open Biology, 2012), this text covers binding for nine molecules.

Results are given in words; binding and its absence hold for the method and conditions named. For some assays here: In cells and extracts the contact can be indirect. Some results given as binding are weak or reduced against the parent protein; the word gives no strength. Tags and fused reporters may be left off the sequences shown.

The target of experiment [1] is T1, MBP–SYCE2_(57–165) (human) (UniProt Q6PIF2).
T1 sequence: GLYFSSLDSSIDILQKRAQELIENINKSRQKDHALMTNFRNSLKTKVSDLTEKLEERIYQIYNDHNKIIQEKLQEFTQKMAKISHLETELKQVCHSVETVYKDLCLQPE
Description: co-purification (sequential Ni–NTA and amylose affinity, TEV cleavage, anion exchange); MBP–SYCE2_(57–165) co-expressed in bacteria with His–TEX12 or His–TEX12_(49–123); from clarified lysate; tags cleaved on the amylose column, then Resource Q.

For experiment [2], the target named is T1, MBP–SYCE2_(57–165) (human). Description: pull-down; amylose pull-down after co-expression in bacteria of MBP-fusion SYCE2 constructs (bait) with His-tagged TEX12 or SYCE2 constructs; lysis in 20 mM Tris pH 8.0, 500 mM KCl, 2 mM DTT; 1 h at 4°C; maltose elution; Coomassie-stained SDS–PAGE.
The target in experiment [3] is T2, human TEX12 (1–123), yeast two-hybrid fusion (human) (UniProt Q9BXU0).
T2 sequence: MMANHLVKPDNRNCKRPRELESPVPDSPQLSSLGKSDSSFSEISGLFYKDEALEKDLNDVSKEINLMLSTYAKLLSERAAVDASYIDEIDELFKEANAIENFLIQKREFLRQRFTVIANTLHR
Nature of the experiment: two-hybrid; Matchmaker Gold Y2H grid; Y187[pGBKT7-bait] mated with Y2HGold[pGADT7-target]; SD/-Ade/-His/-Leu/-Trp with aureobasidin A and X-α-Gal; four reporters ADE1, HIS3, AUR-1C, MEL1; 30°C, 5 days.

The target of experiment [4] is T3, human SYCE2 (1–218), yeast two-hybrid fusion (human) (UniProt Q6PIF2).
T3 sequence: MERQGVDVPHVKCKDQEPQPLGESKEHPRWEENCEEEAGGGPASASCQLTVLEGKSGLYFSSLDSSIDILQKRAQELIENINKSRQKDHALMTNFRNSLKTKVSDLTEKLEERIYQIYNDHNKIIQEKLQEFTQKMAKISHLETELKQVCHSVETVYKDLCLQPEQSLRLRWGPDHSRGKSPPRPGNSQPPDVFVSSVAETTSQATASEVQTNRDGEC
The experiment is described as above.

A further experiment concerns the target T4, MBP–SYCE2_(57–88) (human, UniProt Q6PIF2 57-88).
T4 construct: human SYCE2, residues 57–88 (α1 region); Monomer by SEC–MALS; also called α1 region of SYCE2; source: E. coli Rosetta 2 (DE3); co-expressed (pRSFDuet-1), in clarified lysate for the pull-down; individually expressed, purified on amylose resin for SEC–MALS; not shown: MBP, N-terminal, kept
T4 chain (looked up): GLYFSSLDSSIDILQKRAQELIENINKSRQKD
Description: pull-down; amylose pull-down after co-expression in bacteria of MBP-fusion SYCE2 constructs (bait) with His-tagged TEX12 or SYCE2 constructs; lysis in 20 mM Tris pH 8.0, 500 mM KCl, 2 mM DTT; 1 h at 4°C; maltose elution; Coomassie-stained SDS–PAGE.

Another experiment has as its target T5, MBP–SYCE2 (1–218) (human, UniProt Q6PIF2 1-218).
T5 construct: Tetramer by SEC–MALS; also called full-length SYCE2; source: E. coli Rosetta 2 (DE3); co-expressed (pRSFDuet-1), in clarified lysate for the pull-down; individually expressed, purified on amylose resin for SEC–MALS; not shown: MBP, N-terminal, kept
T5 sequence (looked up): T3 sequence
The description is as above.

Experiment [5] addresses T6, human SYCP3 (1–236), yeast two-hybrid fusion (human) (UniProt Q8IZU3).
T6 sequence: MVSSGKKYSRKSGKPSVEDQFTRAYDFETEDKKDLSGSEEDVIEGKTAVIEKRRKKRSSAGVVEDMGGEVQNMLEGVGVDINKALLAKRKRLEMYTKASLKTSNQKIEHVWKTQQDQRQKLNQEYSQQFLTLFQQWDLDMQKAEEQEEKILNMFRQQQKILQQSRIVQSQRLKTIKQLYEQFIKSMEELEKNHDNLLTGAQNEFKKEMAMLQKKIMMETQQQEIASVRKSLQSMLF
Nature of the experiment: two-hybrid; Matchmaker Gold Y2H grid; Y187[pGBKT7-bait] mated with Y2HGold[pGADT7-target]; SD/-Ade/-His/-Leu/-Trp with aureobasidin A and X-α-Gal; four reporters ADE1, HIS3, AUR-1C, MEL1; 30°C, 5 days.

B1: His–TEX12 (1–123) (natural protein, human, UniProt Q9BXU0 1-123, looked up)
chain: T2 sequence
notes: source: E. coli Rosetta 2 (DE3), co-expressed (pRSFDuet-1), in clarified lysate; not shown: His-tag, N-terminal, kept
Regarding B1, the binding entry in experiment [1] and in experiment [2] was “binds” throughout.

B2: human TEX12 (1–123), yeast two-hybrid fusion (protein, UniProt Q9BXU0 1-123)
chain: T2 sequence
For B2, the binding entry in experiment [3] and in experiment [4] was “binds” throughout.

B3: His–TEX12_(49–123) (domain or fragment, UniProt Q9BXU0 49-123)
chain: KDEALEKDLNDVSKEINLMLSTYAKLLSERAAVDASYIDEIDELFKEANAIENFLIQKREFLRQRFTVIANTLHR
Turning to B3, the binding entry (in experiment [1]; in the experiment with MBP–SYCE2_(57–88); in the experiment with MBP–SYCE2 (1–218); in experiment [2]) was “binds” in each case.

B4: human TEX12 (49–123), yeast two-hybrid fusion (domain or fragment, UniProt Q9BXU0 49-123)
chain: B3 chain
As to B4, in experiment [4], the binding result is given as “binds”.

B5: human SYCE2 (57–165), yeast two-hybrid fusion (domain or fragment, UniProt Q6PIF2 57-165)
chain: T1 sequence
As to B5, the binding result in experiment [3] was “binds”.

B6: human SYCE2 (1–218), yeast two-hybrid fusion (protein, UniProt Q6PIF2 1-218)
chain: T3 sequence
With B6, the binding entry in experiment [3] is on record as “binds”.

B7: human SYCP3 (1–236), yeast two-hybrid fusion (protein, UniProt Q8IZU3 1-236)
chain: T6 sequence
Turning to B7, the binding entry is “no binding” in experiment [3], “binds” in experiment [5] and “no binding” in experiment [4].

B8: His–TEX12 87–123 (domain or fragment, UniProt Q9BXU0 87-123)
chain: DEIDELFKEANAIENFLIQKREFLRQRFTVIANTLHR
On to B8, for which the binding result (with MBP–SYCE2_(57–88); with MBP–SYCE2 (1–218); in experiment [2]) was “binds” in each case.

B9: MBP-TEX12_(24–123) (domain or fragment, human, UniProt Q9BXU0 24-123, looked up)
chain: VPDSPQLSSLGKSDSSFSEISGLFYKDEALEKDLNDVSKEINLMLSTYAKLLSERAAVDASYIDEIDELFKEANAIENFLIQKREFLRQRFTVIANTLHR
notes: Dimer by SEC–MALS; source: E. coli Rosetta 2 (DE3), individually expressed, purified on amylose resin; not shown: MBP, N-terminal, kept
B9: the binding entry (in the experiment with MBP–SYCE2_(57–88); with MBP–SYCE2 (1–218); in experiment [2]) was “binds” each time.
